In PubChem BioAssay AID463173 (ICCB-Longwood Screening Facility, Harvard Medical School, 2010):
Screen size: about 52,000 compounds; about 1,700 (3.3%) were called active. Cut-off read from the data, not from the text of the source: active = survival mostly below about 52% (no sharp cut-off); inactive = mostly above about 56%. The list shows a part of the results.

System: Wild type
Assay: S. aureus survival, RN4220 and DeltatarO strains – OD600, teichoic acid synthesis inhibitors, primary screen (AID 463173)
Conditions: S. aureus RN4220 wild type/DeltatarO growth, OD600, 18 h, hits give low values, screened at 18.75 µg/mL (by protocol)

SMILES | survival
CCCOc1ccc(C2=NC(c3ccncc3)=Nc3ccc(C)cc3N2)cc1 | inactive: 56%
Cc1ccc(-c2n[nH]c3c2C(c2ccccc2Cl)N(c2ccc(C(=O)O)cc2)C3=O)cc1 (stereo not given) | inactive: 84%
Cc1ccc(N2C(=O)SC(N(CC(=O)O)c3ccccc3)C2=O)cc1 (stereo not given) | inactive: 112%
Cc1oc2ccc(NS(=O)(=O)c3ccc(F)cc3)cc2c1C(=O)O | inactive: 146%
Cc1ccccc1CNC(=O)c1ccc(NC(=O)N2CCCCc3ccccc32)cc1 | inactive: 66%
COc1cc(CNCCSc2nnnn2C)ccc1OCc1ccccc1C | inactive: 68%
Cc1c(CN(C)C(=O)c2cc(-c3ccccc3)nc3ccc(Br)cc23)cnn1C | inactive: 66%
Cc1ccccc1-c1noc(-c2ccc(N3CCC(C)CC3)c([N+](=O)[O-])c2)n1 | inactive: 84%
CNc1nc(C)c(C(=O)OCC(=O)OC)s1 | inactive: 113%
CSc1ncc(Cl)c(C(=O)Nc2c(C(=O)Nc3cccc(C)c3)oc3ccccc23)n1 | inactive: 89%
Cc1ccc(S(=O)(=O)c2c(Nc3ccc(C)c(C)c3)sc(C(=O)c3ccc4c(c3)OCO4)c2N)cc1 | inactive: 140%
O=C1c2ccccc2C(=O)N1CCN1C(=O)c2ccccc2C1=O | inactive: 110%
O=C(Nc1c(C(=O)c2ccccc2)oc2ccccc12)c1ccc(F)cc1 | inactive: 66%
CCOc1ccc(C(=O)Nc2ccc3oc(-c4cccc5ccccc45)nc3c2)cc1 | inactive: 73%
O=C1CN(C(=O)c2ccc(S(=O)(=O)N3CCCC3)cc2)C(c2ccccc2)c2cc(Cl)ccc2N1 (stereo not given) | inactive: 90%
NNC(=O)c1nnn(-c2nonc2N)c1CN1CCCC1 | inactive: 103%
CC(C)c1nc2ccc(C(=O)NCCCN3CCN(c4ccccc4)CC3)cc2o1 | inactive: 128%
O=C(CN1CCN(Cc2ccc(F)cc2Cl)C1=O)NCCc1ccc(Cl)cc1 | inactive: 69%
Cc1cc(C)n(CC(=O)Nc2cc(F)ccc2F)c(=O)c1C#N | inactive: 55%
COc1ccc(C(=O)Nc2nc(-c3nnn(-c4ccc(F)cc4F)c3C)ns2)cc1 | inactive: 124%
COc1cccc(C(=O)Nc2ccc3nc4n(c(=O)c3c2)CCCCC4)c1 | inactive: 73%
Cc1ccc(O)c(Nc2nc3ccccc3c3nncn23)c1 | inactive: 87%
COc1ccc(OC)c(NC(=O)N2CC(C)Oc3ccc(C)cc32)c1 (stereo not given) | inactive: 89%
Cc1ccc(C(=O)c2cn(CC(=O)NCc3ccccc3)c3nc(C)ccc3c2=O)cc1 | inactive: 80%
O=C1CS/C(=N\N=C/c2ccccc2)N1 | inactive: 110%
